Data published in the RNAGym collection of RNA variant scans (doi:10.1093/nar/gkz1192).
Read counts are not given, so values of variants with three or more changes are uncertain.

B1: CPEB3 Ribozyme (parent)
chain: UAACAGGGGGCCACAGCAGAAGCGUUCACGUCGCAGCCCCUGUCAGAUUCUGGUGAAUCUGCGAAUUCUGCUGUAUAUCUC

Variants of: B1
Test: self-cleavage, relative activity (ratio to wild type); higher = more cleavage; in vitro, sequencing
In short: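 Libraries of CPEB3 self-cleaving ribozyme mutants came from rounds of error-prone PCR and carried barcodes, which DNA sequencing matched to variants. In vitro transcription used T7 RNA polymerase at 37°C for 5 hours, with a further 15 min in DNase I before EDTA stopped the reaction; the ribozymes cleaved during both steps. The RNA was reverse transcribed with template switching and sequenced on Illumina. Relative activity is the cleaved/total read fraction of a variant divided by that of the unmutated ribozyme, averaged over three batches with at least 5 reads.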

Variant | self-cleavage
UAACUGGGGGCCACAGCAGAAGCGUUCACGUCGCAGCCCCCGUCAGAUUCUGGAGAAUCUGCGAAUUCCGCUGGAUAUCUC [A5U U41C U54A U69C U74G] | 0.87
UAACUGGGGGCCACAGCAGAAGCGUUCACGUCGCAGCCCCCGUCAGAUUCUGGUGAACCUGCGAAUUCAGCUGUAUAUCUC [A5U U41C U58C U69A] | 0.22
UAACUGGGGGCCACAGCAGAAGCGUUCACGUCGCAGCCCCCGUCAGAUUCUGGUGAAUCUGCGAAAUCUGCUGUAUAUCUC [A5U U41C U66A] | 0.39
UAACUGGGGGCCACAGCAGAAGCGUUCACGUCGCAGCCCCCGUCAGAUUCUGGUGAAUCUGCGAAUCCUGCUGUAUAUCUC [A5U U41C U67C] | 0.34
UAACUGGGGGCCACAGCAGAAGCGUUCACGUCGCAGCCCCCGUCAGAUUCUGGUGAAUCUGCGAAUUCGGCUGUAUAUCCC [A5U U41C U69G U80C] | 0.42
UAACUGGGGGCCACAGCAGAAGCGUUCACGUCGCAGCCCCGGACAGACUCUGGUGAAUCUGCGAAUUCUGCUGUAUAUCUC [A5U U41G U43A U48C] | 0.62
UAACUGGGGGCCACAGCAGAAGCGUUCACGUCGCAGCCCCUGACAGAUUCUGGUGGAUCUGCGAAUUCUGCUGUAUAUCUC [A5U U43A A56G] | 1.05
UAACUGGGGGCCACAGCAGAAGCGUUCACGUCGCAGCCCCUGACAGAUUCUGGUGAAUCUGCGGAUUCUGCUGUAUAUCUC [A5U U43A A64G] | 1.12
UAACUGGGGGCCACAGCAGAAGCGUUCACGUCGCAGCCCCUGACAGAUCCUGGUGAAUCUGCGAAUUCCGCUGUAUAUCUC [A5U U43A U49C U69C] | 0.32
UAACUGGGGGCCACAGCAGAAGCGUUCACGUCGCAGCCCCUGCCGGGUUCUGGUGAAUCUGCGAAUUCUGCUGUAUAUCUC [A5U U43C A45G A47G] | 0.25
UAACUGGGGGCCACAGCAGAAGCGUUCACGUCGCAGCCCCUGCCAGAUUCUGGUGAGUCUGCGAAUUCUGCUGCCUAUCUC [A5U U43C A57G U74C A75C] | 0.6
UAACUGGGGGCCACAGCAGAAGCGUUCACGUCGCAGCCCCUGCCAGAUUCUGGUGAACCUGCGAAUUCUGCUGUAUAUCUC [A5U U43C U58C] | 0.2
UAACUGGGGGCCACAGCAGAAGCGUUCACGUCGCAGCCCCUGUCAGACUCUGGUGUAUCUGCGAAUUCUGGUGUAUAUCUC [A5U U48C A56U C71G] | 0.12
UAACUGGGGGCCACAGCAGAAGCGUUCACGUCGCAGCCCCUGUCAGACUCUGGUGAGUCUGCGAAUUCUGCUGUAUAUCUC [A5U U48C A57G] | 1.15
UAACUGGGGGCCACAGCAGAAGCGUUCACGUCGCAGCCCCUGUCAGACUCUGGUGAAUCUGCGGAUUCUGCUGUAUAUCUC [A5U U48C A64G] | 0.41
UAACUGGGGGCCACAGCAGAAGCGUUCACGUCGCAGCCCCUGUCAGACUCUAGUGAAUCUGCUAAUCCUGCUGUAUAUCUC [A5U U48C G52A G63U U67C] | 0.35
UAACUGGGGGCCACAGCAGAAGCGUUCACGUCGCAGCCCCUGUCAGACUCUGUUGAAUCUGCGAAUUCAGCUAUAUAUCUC [A5U U48C G53U U69A G73A] | 0.51

Variant | self-cleavage
UAACUGGGGGCCACAGCAGAAGCGUUCACGUCGCAGCCCCUGUCAGACCGUGGUGAAUCUGCGAAUUCUGCUGUAUAUCUC [A5U U48C U49C C50G] | 0.17
UAACUGGGGGCCACAGCAGAAGCGUUCACGUCGCAGCCCCUGUCAGACUCUGGUGAAUCUGCGAACUCUGCUGUAUAUCUC [A5U U48C U66C] | 0.21
UAACUGGGGGCCACAGCAGAAGCGUUCACGUCGCAGCCCCUGUCAGACUCUGGUGAAUCUGCGAACUCAGUUGUAUAUCUC [A5U U48C U66C U69A C71U] | 0.08
UAACUGGGGGCCACAGCAGAAGCGUUCACGUCGCAGCCCCUGUCAGACUCUGGUGAAUCUGCGAAUUCCGCUGUAUAUCUC [A5U U48C U69C] | 0.72
UAACUGGGGGCCACAGCAGAAGCGUUCACGUCGCAGCCCCUGUCAGAUACUGGUGAAUCUGCGGAUUCUGCUGUAUAUCUC [A5U U49A A64G] | 0.74
UAACUGGGGGCCACAGCAGAAGCGUUCACGUCGCAGCCCCUGUCAGAUACUGGUGAACCUGCGUAAUCUGCUGUAUACCUC [A5U U49A U58C A64U U66A U78C] | 0.1
UAACUGGGGGCCACAGCAGAAGCGUUCACGUCGCAGCCCCUGUCAGAUCCUGGUGUAUCUGCGAAUUCUGCUGUAUACCUC [A5U U49C A56U U78C] | 0.7
UAACUGGGGGCCACAGCAGAAGCGUUCACGUCGCAGCCCCUGUCAGAUCCUGGUGAAUCUGCGUAUUCCGCUGUAUAUCUC [A5U U49C A64U U69C] | 0.09
UAACUGGGGGCCACAGCAGAAGCGUUCACGUCGCAGCCCCUGUCAGAUCCUAGUGAAUCUGCGAAUUCUGCUGUAUAUCCC [A5U U49C G52A U80C] | 0.68
UAACUGGGGGCCACAGCAGAAGCGUUCACGUCGCAGCCCCUGUCAGAUUCAGGUGAAUCUGCGGAUUCUGCUGUAUAUCUC [A5U U51A A64G] | 1.02
UAACUGGGGGCCACAGCAGAAGCGUUCACGUCGCAGCCCCUGUCAGAUUCAGGUGAAUCUGCGGAUUCGGCAGUAUAUCUC [A5U U51A A64G U69G U72A] | 0.51
UAACUGGGGGCCACAGCAGAAGCGUUCACGUCGCAGCCCCUGUCAGAUUCAGGUGAAUCUGCGAAUUCUGCUGAAUAUCAC [A5U U51A U74A U80A] | 1.04
UAACUGGGGGCCACAGCAGAAGCGUUCACGUCGCAGCCCCUGUCAGAUUCAGGUGAAUCUGCGAAUUCUGCUGUAUACCUC [A5U U51A U78C] | 0.73
UAACUGGGGGCCACAGCAGAAGCGUUCACGUCGCAGCCCCUGUCAGAUUCCGGUGGAUCUGCGGAUCCUGCUGCACAUCUC [A5U U51C A56G A64G U67C U74C U76C] | 0.24
UAACUGGGGGCCACAGCAGAAGCGUUCACGUCGCAGCCCCUGUCAGAUUCCGGUGAAUCUGCAAAUCCUGCUGUAUAUCUC [A5U U51C G63A U67C] | 0.37
UAACUGGGGGCCACAGCAGAAGCGUUCACGUCGCAGCCCCUGUCAGAUUCCGGUGAAUCUGCGAAUUCUGCUGCAUAUCUC [A5U U51C U74C] | 1.18
UAACUGGGGGCCACAGCAGAAGCGUUCACGUCGCAGCCCCUGUCAGAUUCGAAUGAAUCUGCGAAUUCUACUGUAUAUCUC [A5U U51G G52A G53A G70A] | 0.34
